Results as given in publication PMC12136788.
The list shows a part of the results.

B1: chr4:70689993:70690094:+|CDS|ENSG00000132467|unk|total|mutant (ssRNA)
RNA: GGGAGUUCUACAGUCCGACGAUCAGAGCCAAAAUCCGAAGAAGAGGCCAGGUUCGUGAAGUUCGUAAAGAAGAGCAACGUUACCGUGGUGAAUUAUCUGGCAUUCGUGCAGGAGUUAAAAAGAGCAUUAAGCUUAAAUGAAGUCAACAGAGGAUUGAGCAUCA
B2: chr12:39618871:39619093:-|CDS|ENSG00000173208|unk|total|mutant (ssRNA)
RNA: GGGAGUUCUACAGUCCGACGAUCUAUUAUGAUGUUCUCCCAAUCUGUGGCUCACUUGUAUUCCAAUCUGACCAAACCUAUUUCCGAUGUAAUGCUGACCUCCUAUACACUCAUUCAAACUGCUACAUCCAGAGGAGCAAGCCCCAACAGAGGAUUGAGCAUCA
B3: chr12:14501823:14501924:+|3pUTR|ENSG00000171681|unk|total|mutant (ssRNA)
RNA: GGGAGUUCUACAGUCCGACGAUCUUUUGUUGUUUGCUCUUUUGCUUUAAAUAUUCUCCAAAUUACCAUUUAUGCAACAUGGUCCGGGUUAAUACUGCAUGGUAUUCAUUUAUCUUGUUUCAUGAACUUUCCAGUACUGUACAACAACAGAGGAUUGAGCAUCA
B4: chr5:137939581:137939637:-|3pUTR|ENSG00000031003|msi1_unk|total|mutant (ssRNA)
RNA: GGGAGUUCUACAGUCCGACGAUCUGUCCGUAAAAUUUUGCAAUUCGCUGGUCACACAGCUCCCGGAUGAAGAUAACAGUUGGCCGACCAAAAGGUGACCUCGCUCCGUAUAUUGAAAACACACACCACACAUCACACACAGAACAACAGAGGAUUGAGCAUCA
B5: ENSG00000021826:stop:overlap|stop_codon|ENSG00000021826|stop_codon|NA|stop_codon (ssRNA)
RNA: GGGAGUUCUACAGUCCGACGAUCGCAAGGUGGACUCCAAGAGUCUUUUCCACUACAGGCAGUACAGUGCUGGAAAAGCAGCAUAGAGAUGCAGACACCCCAGCCCCAUUAUUAAAUCAACCUGAGCCACAUGUUAUCUAAAGGCAACAGAGGAUUGAGCAUCA
B6: ENSG00000198589:be:win_4701|CDS|ENSG00000198589|bound_else_gene|NA|bound_elsewhere_windowed (ssRNA)
RNA: GGGAGUUCUACAGUCCGACGAUCCAGUGAAAAUGAGAAUGUAUCACUCUCUGAAAUCACACCAGCAGCAUUCAGCACUUUAACUACGGCAUCAGUGGAAGAAUCUGAAAGCACAUCAUCUGCUCGAAGGAGGGACUCAGGCAUCAACAGAGGAUUGAGCAUCA
B7: chrX:51490010:51491748:-|three_prime_utr|ENSG00000196368|control|control|control (ssRNA)
RNA: GGGAGUUCUACAGUCCGACGAUCACUCCUUCCCUGUCUAUACCACUGACUCUUGCUCUGGUUGUUGUACUCUUAUACGUGAAUAGACUCUUAAUUCAGCACCUAUAGCCUUUUGUUGUGCUUUUUUGAUGUGUCUGCCUUCAUCAACAGAGGAUUGAGCAUCA
B8: chr15:77046258:77046342:-|3pUTR|ENSG00000140391|msi1_unk|total|mutant (ssRNA)
RNA: GGGAGUUCUACAGUCCGACGAUCAAAAAUAUUUACUGCCGUCCAAUAAGACCGCAGCUGUACAAAAUGACUAAAACCGAUUGCCGGAUCAUAUGGCGUAUAUCUUGGUUCAUCUUCAAAAUCAGAGACUGAGCUUUGAAACUACAACAGAGGAUUGAGCAUCA
B9: chr13:51761002:51761103:+|3pUTR|ENSG00000139668|unk|FALSE|unique (ssRNA)
RNA: GGGAGUUCUACAGUCCGACGAUCACGGCAAGAUUGUAAUCCUGCUGUAUUCCUCGCCCUCUGUAUUCUAUCCCUUUAAAAACUAGAUAUUUAAACAUUUUAUCCUAAUGUGUUUCAUCAGAACACUUUGCACACUUUCUUACUCAACAGAGGAUUGAGCAUCA
B10: chr15:56434137:56434395:-|CDS|ENSG00000138587|control|control|control (ssRNA)
RNA: GGGAGUUCUACAGUCCGACGAUCAGAGGAAGAGGAGAACUUUAGAAAAACUAUGCUAGCUAAAUUUGCUGAGGAUGAUCGAAUAGAAUUAAUGAAUGCUCAGAAACAAAGAAUGAAGCAGCUGGAACACAGGAGGGCUGUGGACAACAGAGGAUUGAGCAUCA
B11: chr8:70573615:70573716:-|3pUTR|ENSG00000067167|msi1|total|mutant (ssRNA)
RNA: GGGAGUUCUACAGUCCGACGAUCCAGUGUUCACAUCUUGUUCCCCAUUUCUCACUUGUGUCACCAGCUGUUUGUGCCAUUUUCCGUGUAAAAGUUGCAGACCUAUCCGAUCUGCAGUUUAAGUUGCCAUGCUGCCCGGAAAUUCAACAGAGGAUUGAGCAUCA
B12: ENSG00000070961:be:win_1951|CDS|ENSG00000070961|bound_else_gene|NA|bound_elsewhere_windowed (ssRNA)
RNA: GGGAGUUCUACAGUCCGACGAUCGCAUUCAGAGAUUUUCCAGCAGGAGAACCAGAACCAGAGUGGGAUAAUGAAAAUGAUAUUGUCACCGGCCUUACAUGCAUUGCUGUUGUGGGGAUUGAAGAUCCUGUGAGACCUGAGGUGCAACAGAGGAUUGAGCAUCA
B13: ENSG00000198589:be:win_6851|CDS|ENSG00000198589|bound_else_gene|NA|bound_elsewhere_windowed (ssRNA)
RNA: GGGAGUUCUACAGUCCGACGAUCAAGUUCCAAAGUUUCACUAUGGUACUCAUUACUCAACUGCAAGUUUUGUUCUUGCAUGGCUGCUAAGAAUAGAACCCUUUACAACUUAUUUCCUAAAUUUGCAAGGAGGCAAAUUUGAUCCAACAGAGGAUUGAGCAUCA
B14: ENSG00000114744:stop:overlap|stop_codon|ENSG00000114744|stop_codon|NA|stop_codon (ssRNA)
RNA: GGGAGUUCUACAGUCCGACGAUCAACAAGCAUUGGAAGAGAUGAAGACAAAUCACUGUAGGAGAGUUGUUCGCAACAUCAAGUAGUACCAGUUUUAAGGUUUUAAUUCAUUUGAAUCACUUAUGAAUUGAUGAUAUACAGCAACAACAGAGGAUUGAGCAUCA
B15: chr2:46903092:46903222:-|3pUTR|ENSG00000180398|msi1|FALSE|unique (ssRNA)
RNA: GGGAGUUCUACAGUCCGACGAUCAAGCAGAAACCCCUGAUAAACUGAUCAGAUCUCAUGAGACUUAUUCACUGUCACGAGAAUAGCACGGGAAAGACUGGCCCCCAUGAUUCAAUUACCUCCCCCUGGGUCUGUCCCACAACACAACAGAGGAUUGAGCAUCA
B16: ENSG00000140057:stop:overlap|stop_codon|ENSG00000140057|stop_codon|NA|stop_codon (ssRNA)
RNA: GGGAGUUCUACAGUCCGACGAUCCGCGGCCUGACUUUGCGGUGGAGACGUACUCUGUAAGUCCCGGAGGCUCUGGCCAGGAGUAGACAGAGGGAAGAGUCACCUUCCGCUCCAACGCCUUGACAACUUGUUUUACUGUUUGCCCAACAGAGGAUUGAGCAUCA
B17: chr13:38882223:38882324:+|3pUTR|ENSG00000150893|msi1|FALSE|unique (ssRNA)
RNA: GGGAGUUCUACAGUCCGACGAUCAGAAAAAUAAGGUCAGGAGAAAAAGAAUAAUGCCUACAGAUUAUCCUUCAGAUGCUGGCUAGAAUCCCCUUUGACUUCUAGCCAUAAGCUGGCCACAUUGGACAUCUUGGUCACUGCAGACAACAGAGGAUUGAGCAUCA
B18: chr7:7573188:7573293:+|CDS|ENSG00000164654|unk|total|mutant (ssRNA)
RNA: GGGAGUUCUACAGUCCGACGAUCCCAUAUUUCCACGAUCGUGUUGCUUCCUUCUAUGAAGGUCAGGUUGCAAUAUGGGAUCUCCGAAAAUUUGAGAAGCCAGUUUUGACAUUGACUGAGCAACCAAAACCCUUAACAAAAGUACAACAGAGGAUUGAGCAUCA
B19: ENSG00000198589:be:win_4051|CDS|ENSG00000198589|bound_else_gene|NA|bound_elsewhere_windowed (ssRNA)
RNA: GGGAGUUCUACAGUCCGACGAUCGUCAUCUUUGUACACAACACAAUUCAUCUCAUCUCUCAAGUGAUGGACAAUAUGGUCAUGGCUUGUGGGGGUAUACUGCCAUUGCUUUCAGCUGCUACAUCGGCUACACAUGAACUGGAACAACAGAGGAUUGAGCAUCA
B20: chr7:101138022:101138407:+|3pUTR|ENSG00000106366|msi1|FALSE|unique (ssRNA)
RNA: GGGAGUUCUACAGUCCGACGAUCCUCUUGGUGGGGAGGGGUGUACCUAAAUAUUUAUCAUAUCCUUGCCCUUGAGUGCUUGUUAGAGAGAAAGAGAACUACUAAGGAAAAUAAUAUUAUUUAAACUCGCUCCUAGUGUUUCUUCAACAGAGGAUUGAGCAUCA
B21: chr10:32268825:32268926:-|3pUTR|ENSG00000120616|unk|FALSE|unique (ssRNA)
RNA: GGGAGUUCUACAGUCCGACGAUCUGGGGACUUGACAGCAAUGCUCAUCUCUCAUGCUUCAAUUUUUCUUUUCUUACUGUUAAUAGGAAAAAAAUCAACAUCUGUAAAUUAAGAAUACAGCAAUUAUCUGUACAGUACUGCAUACAACAGAGGAUUGAGCAUCA
B22: ENSG00000109180:stop:overlap|stop_codon|ENSG00000109180|stop_codon|NA|stop_codon (ssRNA)
RNA: GGGAGUUCUACAGUCCGACGAUCCAACAGAGGAAGAAAGGAGAGUCUUCGCAGAAUGCAAUGAUGAAAGCUUCUGGUUCAGAUAGAUGGGGUUUCACCGUGUUAACCAGGAUGGUCUCCAUCUCCUGACCUUGUGAUCCACCUCAACAGAGGAUUGAGCAUCA

Target: MSI1 full-length (mouse, UniProt Q61474 1-362)
Assay: nsRBNS (natural sequence RNA bind-n-seq); RBNS binding buffer (assumed for nsRBNS): 25 mM Tris pH 7.5, 150 mM KCl, 3 mM MgCl2, 0.01% Triton X-100, 500 ug/ml BSA, 20 U/ml SUPERase-In, 4 C; UNK is unkempt and MSI1 is Musashi-1; names of the RNAs are library labels; protein concentration not given here; high values mean tight binding

UniProt Q61474, sequence (Q61474 whole entry): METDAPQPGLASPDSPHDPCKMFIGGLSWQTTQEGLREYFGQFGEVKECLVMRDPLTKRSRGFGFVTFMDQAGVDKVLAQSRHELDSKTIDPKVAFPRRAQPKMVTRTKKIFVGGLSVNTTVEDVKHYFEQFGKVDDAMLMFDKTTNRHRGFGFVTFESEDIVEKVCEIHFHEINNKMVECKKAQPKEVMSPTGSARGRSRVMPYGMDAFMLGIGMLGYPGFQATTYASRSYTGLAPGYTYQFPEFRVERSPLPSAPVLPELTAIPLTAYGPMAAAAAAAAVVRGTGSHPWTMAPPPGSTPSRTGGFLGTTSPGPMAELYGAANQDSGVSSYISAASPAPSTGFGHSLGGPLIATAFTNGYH

Binder | binding signal [enrichment R]
B1 | 0.548
B2 | 0.621
B3 | 0.513
B4 | 0.8
B5 | 0.308
B6 | 0.426
B7 | 1.36
B8 | 0.244
B9 | 14.4
B10 | 3.42
B11 | 0.472
B12 | 0.449
B13 | 0.297
B14 | 16.3
B15 | 0.605
B16 | 1.06
B17 | 0.232
B18 | 0.2
B19 | 0.513
B20 | 2.12
B21 | 0.754
B22 | 1.04
